In patent publication US20220119517A1 (NANJING SANHOME PHARMACEUTICAL, published 2022):

Tests used:
[1] = biological target: T1, human Claudin18.2 (CLDN18.2), full length, on cells (human); assay: FACS on CHO-K1-CLDN18.2 cells, relative Kd from Graphpad fit
T1 construct: also called CLDN18.2-FL; HEK293-CLDN18.2 cells
Experimental: (§1) CHO-K1-CLDN18.2 cells and CHO-K1-CLDN18.1 cells (prepared in Example 5) were digested with gastric cancer cell digestion solution at 37° C. for 15 minutes, respectively; terminated with complete culture medium, centrifuged at 1000 rpm for 5 minutes, the supernatant was discarded; the cells were resuspended with 2% fetal bovine serum-PBS diluent, the cells were adjusted to 1×10⁶ cells/ml, 100 μl of cell suspension was added to each well of the 96-well U-shaped-bottom plate; 2% fetal bovine serum-PBS was used to dilute the humanized antibody and the control antibody to final concentrations of 10 μg/ml, 2 μg/ml, 0.4 μg/ml, 0.08 μg/ml and 0.016 μg/ml, respectively, mixed well with the cells in equal volume, incubated at 4° C. for 1 hour; centrifuged at 1000 rpm for 5 minutes, the supernatant was discarded; 200 μl Cell Stain Buffer (Biolegend) was added to each well to wash twice, centrifuged at 1000 rpm for 5 minutes at each time and the supernatant was discarded; 100 μl of PE-anti human Fc antibody (Biolegend) was added, incubated at 4° C. for 1 hour; washed with Cell Stain Buffer (Biolegend) twice, centrifuged at 1000 rpm for 5 minutes at each time and the supernatant was discarded. 300 μl Cell Stain Buffer was added to resuspend the cells, and detected by BD FACS Jazz flow cytometry analyzer. […]

[2] = biological target: T1, human Claudin18.2 (CLDN18.2), full …; assay: cell-based or functional assay
[3] = biological target: T1, human Claudin18.2 (CLDN18.2), full …; assay: FACS on CHO-K1-CLDN18.2 cells, ratio of fitted Kd
Experimental: as §1

[4] = biological target: T1, human Claudin18.2 (CLDN18.2), full …; assay: FACS on CHO-K1-CLDN18.2 cells, Graphpad fit
Experimental: as §1

[5] = biological target: T1, human Claudin18.2 (CLDN18.2), full …; assay: cell-based or functional assay; remark: listed apart in the source
[6] = biological target: T1, human Claudin18.2 (CLDN18.2), full …; assay: FACS on NUGC4 cells, positive rate
Experimental: The effect of the Fc-mutated humanized antibody on the binding to the target CLDN18.2 was identified by FACS. NUGC4 cells were digested using the gastric cancer cell digestion solution at 37° C. for 15 minutes; terminated by the complete culture medium, centrifuged at 1000 rpm for 5 minutes, the supernatant was discarded; the cells were resuspended with 2% fetal bovine serum-PBS diluent, the cells were adjusted to 1×10⁶ cells/ml, 100 μl of cell suspension was added to each well of the 96-well U-shaped-bottom plate; the antibody was diluted with 2% fetal bovine serum-PBS to final concentrations of 5 μg/ml, 1 μg/ml, 0.2 μg/ml, 0.04 μg/ml and 0.008 μg/ml, mixed with the cells in equal volume, incubated at 4° C. for 1 hour; centrifuged at 1000 rpm for 5 minutes, the supernatant was discarded; 200 μl of Cell Stain Buffer (Biolegend) was added to each well to wash twice, centrifuged at 1000 rpm for 5 minutes at each time and the supernatant was discarded; 100 μl of PE-anti human Fc antibody (Biolegend) was added, incubated at 4° C. for 1 hour; washed twice using Cell Stain Buffer (Biolegend), centrifuged at 1000 rpm for 5 minutes at each time and the supernatant was discarded. 300 μl of Cell Stain Buffer was added to resuspend the cells, detected with BD FACS Jazz flow analyzer.

[7] = biological target: T2, antigen protein Claudin18.2-His (human, UniProt P56856-2 1-261, limits assumed); assay: BLI (Fortebio Octet RED96), antibody on AHC sensor, CLDN18.2 protein in solution, 37 °C
T2 construct: also called CLDN18.2 protein
Experimental: Another method is to verify the affinity of the humanized antibody above at the protein level. The antibody was immobilized by the AHC sensor, and combined with different concentrations of antigens, and affinity determination was performed according to the manual of Octet RED96.

B1: Hu330-1 (antibody, human IgG1, kappa)
heavy: EVQLVESGGGLVQPGGSLRLSCAASGFGFSDYGMAWVRQAPGKGLEWVSFISNSAYSIYYADTVTGRFTISRDNAKNSLYLQMNSLRAEDTAVYYCARLGRGNSFAYWGQGTLVTVSS[sequence of human IgG1 constant region omitted]
light: DIVMTQSPDSLAVSLGERATINCKSSQSLLNSGNQKNYLTWYQQKPGQPPKLLIYWGSTRESGVPDRFSGSGSGTDFTLTISSLQAEDVAVYYCQNELFYPLTFGQGTKLEIKRTVAAPSVFIFPPSDEQLKSGTASVVCLLNNFYPREAKVQWKVDNALQSGNSQESVTEQDSKDSTYSLSSTLTLSKADYEKHKVYACEVTHQGLSSPVTKSFNRGEC
notes: also called humanized antibody Hu330-1
Kd [1]: 1.7 nM | ADCC activity by luciferase labeling, EC50 [2]: 0.12 nM | ADCC activity by luciferase labeling, Top [2]: 68300 | fold higher binding activity than IMAB362-similar-hG1 [3]: ~15 fold | Bmax (MFI) [4]: 11300 MFI | ADCC activity by luciferase labeling, EC50 [5]: 0.45 nM | ADCC activity by luciferase labeling, Top [5]: 89800 | EC50 [6]: 0.8 nM | Top (%) [6]: 92.1% | Kd [7]: 0.526 nM | koff [7]: 9.22e-05 s⁻¹ | kon [7]: 175000 M⁻¹ s⁻¹

Where two headings read alike, the source gives them in different places.
